# Experimental data reported in a collection of fitness landscapes (doi:10.1126/science.1257360).
# The other results are listed elsewhere or left out.
# B1: PhoQ; a variant is named by its letters at X, in order, P23837 (parent)
# chain: MKKLLRLFFPLSLRVRFLLATAAVVLVLSLAYGMVALIGYSVSFDKTTFRLLRGESNLFYTLAKWENNKLHVELPENIDKQSPTMTLIYDENGQLLWAQRDVPWLMKMIQPDWLKSNGFHEIEADVNDTSLLLSGDHSIQQQLQEVREDDDDAEMTHSVAVNVYPATSRMPKLTIVVVDTIPVELKSSYMVWSWFIYVLSANLLLVIPLLWVAAWWSLRPIEALAKEVRELEEHNRELLNPATTRELTSLVRNLNRLLKSERERYDKYRTTLTDLTHSLKTPLXXLQXXLRSLRSEKMSVSDAEPVMLEQISRISQQIGYYLHRASMRGGTLLSRELHPVAPLLDNLTSALNKVYQRKGVNISLDISPEISFVGEQNDFVEVMGNVLDNACKYCLEFVEISARQTDEHLYIVVEDDGPGIPLSKREVIFDRGQRVDTLRPGQGVGLAVAREITEQYEGKIVAGESMLGGARMEVIFGRQHSAPKDE
# Variants of: B1
# Assay: enrichment ratio after two sorts for PhoP signalling (ratio (wild type AVST 3.29)); higher = more functional
# Conditions: with PhoP (E. coli)
row,Variant,enrichment ratio
1,KPSP,≤ 0.25
2,QVLL,≤ 0.25
3,FLKP,≤ 0.25
4,WWTF,≤ 0.25
5,YLFF,≤ 0.25
6,YNSN,≤ 0.25
7,FFFI,≤ 0.25
8,LIQI,≤ 0.25
9,AHGA,≤ 0.25
10,LMSQ,≤ 0.25
11,ESHV,≤ 0.25
12,KDTG,≤ 0.25
13,PITN,≤ 0.25
14,ADCF,≤ 0.25
15,ANCN,33
16,TELP,≤ 0.25
17,LYMY,≤ 0.25
18,IGSV,≤ 0.25
19,ASVD,≤ 0.25
20,FKTF,≤ 0.25
21,FVPF,≤ 0.25
22,FFYT,≤ 0.25
23,PETL,≤ 0.25
24,NRCC,≤ 0.25
25,MKEH,≤ 0.25
26,ESSQ,≤ 0.25

row,Variant,enrichment ratio
1,MLTN,≤ 0.25
2,VNAM,≤ 0.25
3,DTPH,≤ 0.25
4,QWSH,≤ 0.25
5,TVFI,≤ 0.25
6,INAA,≤ 0.25
7,DNLN,≤ 0.25
8,YQCR,≤ 0.25
9,VPSH,≤ 0.25
10,VEAL,≤ 0.25
11,IEGR,≤ 0.25
12,QEVW,≤ 0.25
13,MQCT,≤ 0.25
14,STFL,≤ 0.25
15,HKDG,≤ 0.25
16,LHDP,≤ 0.25
17,WQYW,≤ 0.25
18,WLDK,≤ 0.25
19,SLTG,12.5
20,DIRV,2.11
21,ECKE,≤ 0.25
22,HQKD,≤ 0.25
23,QYTL,≤ 0.25
24,QHHQ,≤ 0.25
25,DNMP,≤ 0.25
26,AMHR,≤ 0.25

row,Variant,enrichment ratio
1,YGWE,≤ 0.25
2,IKHN,≤ 0.25
3,TSFR,≤ 0.25
4,DHMA,≤ 0.25
5,GGMR,≤ 0.25
6,HDWF,≤ 0.25
7,NDWC,≤ 0.25
8,TPRD,≤ 0.25
9,YMHC,≤ 0.25
10,WSCA,≤ 0.25
11,PSQG,≤ 0.25
12,FTSP,≤ 0.25
13,RSPC,≤ 0.25
14,AICW,≤ 0.25
15,ARHQ,≤ 0.25
16,NQNH,≤ 0.25
17,TDNK,≤ 0.25
18,PEIT,≤ 0.25
19,VFFT,≤ 0.25
20,LENF,≤ 0.25
21,PKSQ,≤ 0.25
22,ISNM,≤ 0.25
23,IVFM,≤ 0.25
24,PNHC,≤ 0.25
25,DVPI,≤ 0.25
26,EMSM,≤ 0.25

row,Variant,enrichment ratio
1,ITCN,≤ 0.25
2,LRGY,≤ 0.25
3,LNDW,≤ 0.25
4,MSKV,≤ 0.25
5,LFCR,≤ 0.25
6,IFIH,≤ 0.25
7,NMQR,≤ 0.25
8,VPNN,≤ 0.25
9,VRKI,≤ 0.25
10,KYGC,≤ 0.25
11,MTED,≤ 0.25
12,IVSD,≤ 0.25
13,MCVI,≤ 0.25
14,PPHH,≤ 0.25
15,QTWV,≤ 0.25
16,RYYM,≤ 0.25
17,TLWY,≤ 0.25
18,EDYV,≤ 0.25
19,EECE,≤ 0.25
20,VNYD,≤ 0.25
21,SFFI,≤ 0.25
22,QYWH,≤ 0.25
23,RYYS,≤ 0.25
24,DWGV,≤ 0.25
25,DMLG,≤ 0.25
26,QGFL,1.75

row,Variant,enrichment ratio
1,DVVS,≤ 0.25
2,NTCG,≤ 0.25
3,QYFN,≤ 0.25
4,NEAS,8.28
5,PHQP,≤ 0.25
6,QHTH,≤ 0.25
7,HCGS,≤ 0.25
8,SHPM,≤ 0.25
9,MSAG,9.23
10,IRNL,≤ 0.25
11,TICK,1.1
12,AMWH,≤ 0.25
13,HADA,≤ 0.25
14,EYNS,≤ 0.25
15,ECSW,≤ 0.25
16,IFLD,≤ 0.25
17,SARD,≤ 0.25
18,YTCC,≤ 0.25
19,IGYI,≤ 0.25
20,LDPH,≤ 0.25
21,TCWL,7.59
22,YNQE,≤ 0.25
23,KGIW,≤ 0.25
24,HMDM,≤ 0.25
25,TLGY,3.25
26,IPSE,≤ 0.25

row,Variant,enrichment ratio
1,HTSR,≤ 0.25
2,FKDM,≤ 0.25
3,EFCW,≤ 0.25
4,FCPD,≤ 0.25
5,DHQY,≤ 0.25
6,KTDS,≤ 0.25
7,KLFN,≤ 0.25
8,MWYI,≤ 0.25
9,NNTD,≤ 0.25
10,IFPD,≤ 0.25
11,RGKC,≤ 0.25
12,SIIM,0.917
13,FTHN,≤ 0.25
14,STNM,11.4
15,ANYI,≤ 0.25
16,YSDA,≤ 0.25
17,DDMA,≤ 0.25
18,RKQS,≤ 0.25
19,LFDI,≤ 0.25
20,GQYL,≤ 0.25
21,FQKL,≤ 0.25
22,PLSS,≤ 0.25
23,ACPT,≤ 0.25
